Sequences and labels used below:
B1: CPEB3 Ribozyme (parent)
chain: UAACAGGGGGCCACAGCAGAAGCGUUCACGUCGCAGCCCCUGUCAGAUUCUGGUGAAUCUGCGAAUUCUGCUGUAUAUCUC

83 variants from the RNAGym collection of RNA variant scans (doi:10.1093/nar/gkz1192) can be followed below.

The source gives no read counts; variants with many changes may rest on few reads.

The variants in this series derive from B1. Put plainly: self-cleavage, relative activity (ratio to wild type); higher = more cleavage; in vitro, sequencing. The gist of the method: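 Relative activity compares each variant's cleaved/total read fraction with that of the unmutated ribozyme. To get these fractions, barcoded CPEB3 ribozyme libraries from rounds of error-prone PCR were transcribed with T7 RNA polymerase for 5 hours at 37°C and then given 15 min of DNase I treatment before EDTA was added. The RNAs were reverse transcribed with template switching and sequenced on Illumina, and DNA sequencing linked barcodes to variants. A minimum of 5 reads applied, and three batches were averaged.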
For A15U U26C U54C G73A, the self-cleavage amounted to 0.72. In the case of G16A U26A A45C U58C U78C it was 0.19. In the case of A15U U26A U31G U41G G70C it was 0.04; in that of A15U U54C U58C, 0.25. As for A15U U26C A64G, the figure is 0.23; as for A15U U31A C62A A64C, 0.09; as for A15U U26C U49G, 0.1.

On to A15U U26C A56C A57G U69A U72A, for which the self-cleavage came to 0.13. With G16A G36C U74A U80A, the self-cleavage was determined as 0.03. In the case of A15U U26A U31C U51A U66C it was 0.16; in that of G16U G36C U43G U51C U60C C68U, 0.03; in that of G16A U41A A45C U48C U80A, 0.03. In the case of A15U U49C U51C G52U U67G U76C U80C it was 0.1; in that of G16U A21G U43C A47G U80C, 0.29.

As to G16A A56U U69A U78A, the self-cleavage is 0.07. In the case of A15U U41C U67C U69A it was 0.2. With A15U U69C U78C, the self-cleavage was 0.13.

For the variant G16A U25C C68U U80C, the self-cleavage is 0.19.

For the variant A15U U51A U80C, the self-cleavage is 0.75. In the case of A15U U43C C50U U76C it was 0.14. As to G16U C32G A47G, the self-cleavage came out at 0.06. In the case of A15U U51C A65U it was 0.21. With A15U U26C U31C A56G U80A, the self-cleavage was determined as 0.62.

Regarding G16C A56U U80C, the self-cleavage is 0.26. As for A15U U41A A56U, the figure is 0.17; as for A15U U26C U60A, 0.1; as for G16C A35U A64G U69A U72C, 0.12. In the case of G16C A18G G33U G70A it was 0.42; in that of A15U U31C U67C A75G, 0.11. In the case of A15U U58C A64U U72C U78C it was 0; in that of G16A U26C U66C, 0.09; in that of G16U A45G U72A, 0.19. For A15U U26G A64G A65U, the self-cleavage was 0.13. Turning to A15U U31C U54A A64G A65G U72C, the self-cleavage turned out to be 0.09. As for A15U U26A A45U, the figure is 0.15; as for A15U U41C G63U, 1.14; as for A15U U26C U43A, 0.26. As to A15U U26C A47G U58C U60A, the self-cleavage came out at 0.18. As to A15U U25C U69C, the self-cleavage was found to be 0.28. In the case of G16A U26C A45U U60C U74A it was 0.18; in that of G16A A20G U54C U78C, 0.16. For the variant A15U U67A U69A, the self-cleavage is 0.13. In the case of A15U U43C A47G U58C U67C U69C C71U it was 0.39; in that of G16A A21G U49C U78C C81U, 0.04; in that of G16A G22U C38U U54C U67C U69A, 0.05. In the case of A15U U54C A57G it was 0.2; in that of G16A A35G U54C U60A, 0.1. As for A15U U51C A56G C71A, the self-cleavage is 0.15. As for A15U U41C U49C A56U, the figure is 0.17. As for G16A A56U U60A U72G, the figure is 0.07; as for G16C G33A U51A, 0.09; as for A15U U31G U51A U54C, 0.61. Turning to G16C A18G A20U U26A A35G C68U, the self-cleavage came to 0.19.

Take A15U U69A U76C: the self-cleavage turned out to be 0.3.

For A15U U26A G33A U43G U67C, the self-cleavage came out at 0.04. As for A15U U43A U49C U69A, the figure is 0.18.

Consider A15U U41C U80A, for which the self-cleavage is 0.89. On to G16A A18U U31C C34U U72C, for which the self-cleavage came to 0.21. As for G16C A57G C62U, the figure is 0.15. For A15U U60G G70A U80A, the self-cleavage is 0.11.

Turning to G16A A28G U43C U58A G61A U69A, the self-cleavage amounted to 0.05. In the case of G16A A20C C29U it was 0.13; in that of A15U U41C U49C A65G, 0.11; in that of G16U A18G U78A, 0.51. On to A15U U51C U60A A65G, for which the self-cleavage worked out at 0.12. In the case of G16C A28U C34U U43G U66C C71U U76C it was 0.07; in that of A15U U25C U51C U80C, 0.28; in that of G16U A21G A28U C38A, 0.25. Take A15U U43C C62U: the self-cleavage stood at 0.24. For A15U U25C U72A, the self-cleavage stood at 0.08.

With A15U U25C U72G, the self-cleavage stood at 0.15. In the case of G16A A28U G33A A45U it was 0.1; in that of G16U C23U A35G, 0.36.

For the variant A15U U26C U54A, the self-cleavage is 0.22. In the case of G16A U25C U26A it was 0.3; in that of A15U U48C A65G, 0.17. In the case of G16U G36C U43G U51C U54G G63A it was 0.06. Consider G16A U51A U58C, for which the self-cleavage was determined as 0.16.

Take G16U G36C U43G U51C U60A: the self-cleavage is 0.08. As for A15U U25C U67C, the figure is 0.13; as for G16A C39A U76C, 0.31. In the case of A15U U41A U74C it was 0.24; in that of A15U U25C U66C U72C, 0.16.
